Experimental data reported in the supplement of paper PMC3334620.
Over roughly 33,000 sequences, “E-score (-0.5 to 0.5)” has its median near -0.035; the highest 2% begin near 0.35. The list shows a part of the results.

Target: T1, Pdr3 (UniProt P33200)
T1 sequence: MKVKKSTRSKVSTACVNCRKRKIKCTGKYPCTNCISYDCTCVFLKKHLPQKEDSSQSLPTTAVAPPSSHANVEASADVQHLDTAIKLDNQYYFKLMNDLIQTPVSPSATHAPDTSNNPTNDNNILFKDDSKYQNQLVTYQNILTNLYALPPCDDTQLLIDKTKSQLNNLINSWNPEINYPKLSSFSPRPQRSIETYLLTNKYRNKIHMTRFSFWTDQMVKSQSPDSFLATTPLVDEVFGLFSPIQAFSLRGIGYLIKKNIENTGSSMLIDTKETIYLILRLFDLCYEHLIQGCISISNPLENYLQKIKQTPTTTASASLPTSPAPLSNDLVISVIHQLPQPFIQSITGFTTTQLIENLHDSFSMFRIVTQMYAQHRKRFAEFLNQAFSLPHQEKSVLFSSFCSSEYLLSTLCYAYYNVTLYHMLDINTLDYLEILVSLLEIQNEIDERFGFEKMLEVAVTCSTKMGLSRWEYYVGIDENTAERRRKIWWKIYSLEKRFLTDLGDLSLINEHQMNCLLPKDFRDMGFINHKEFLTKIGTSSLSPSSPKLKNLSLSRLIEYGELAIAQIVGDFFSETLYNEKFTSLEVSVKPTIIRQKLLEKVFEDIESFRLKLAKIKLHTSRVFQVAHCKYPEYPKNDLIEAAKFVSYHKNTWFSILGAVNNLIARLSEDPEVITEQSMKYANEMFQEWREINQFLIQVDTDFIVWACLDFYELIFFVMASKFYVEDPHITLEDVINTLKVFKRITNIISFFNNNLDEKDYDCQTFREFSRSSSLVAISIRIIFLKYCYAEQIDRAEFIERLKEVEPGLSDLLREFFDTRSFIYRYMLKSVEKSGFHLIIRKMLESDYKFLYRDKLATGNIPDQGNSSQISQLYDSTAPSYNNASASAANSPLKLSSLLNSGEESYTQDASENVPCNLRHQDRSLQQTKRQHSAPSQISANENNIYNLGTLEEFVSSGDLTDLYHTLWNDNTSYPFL
Assay: PBM E-score (8-mer binding enrichment) (E-score (-0.5 to 0.5)); higher = stronger / more preferred TF binding; most listed sequences are background and not binding sites
Settings: protein concentration: 200 nM; construct: GST-full length
How it was run: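 Yeast transcription factors carrying a GST tag, as full-length proteins or DNA-binding domains, were produced by PURExpress in vitro transcription/translation. About 100-200 nM protein was applied to universal all-10-mer Agilent arrays, double-stranded by primer extension on fresh or once-stripped slides. Bound protein was detected with fluorescent anti-GST, and scans were normalised with masliner. The Universal PBM Analysis Suite gave each ungapped eight-base word, pooled with its reverse complement, an E-score, a modified Wilcoxon-Mann-Whitney statistic.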

Sequence	PBM E-score
AAGGTGTA	-0.185
CACTGCCA	-0.0758
ATCCGGGG	0.389
AATTAACA	-0.0341
TGGCGACA	-0.133
TAAAACTA	-0.0639
AGAAGTTC	-0.113
CTATACGC	-0.0164
CTGCTTCC	0.177
GTCGAAAA	-0.0482
ATAATGGC	0.0655
AATGCTCC	0.0293
CAACCTAG	-0.125
AGCCTGGG	-0.0413
CAGTCCCA	-0.161
AAGGGAAG	-0.0188
CTTGGTCC	0.0714
CACAACAG	-0.31
AGAATACG	-0.0681
GAACACAC	0.138
CAGCAGGA	-0.046
AACCGGGA	0.243

Sequence	PBM E-score
AAAGGTTC	-0.0723
TCAGTGCA	-0.159
CAATGGTC	-0.0842
CAAATCCG	0.268
AGATTAGC	-0.0982
GTGCAGAA	-0.102
AGAGACAG	-0.0197
ATAGGGTA	-0.118
GAGTCCTA	-0.235
AAGGTCAA	-0.207
AACTCCAC	-0.0653
GCAGAGCA	-0.193
CTTGCGAC	-0.135
ATTTGGAA	-0.159
TAATTCCA	-0.0255
CTAGGATC	-0.0571
GACCAGGC	-0.209
ACGCTTAT	-0.243
CGGCGATC	0.279
CCGGCAGA	0.229
GCGCCGGA	0.384
GCTTAACA	-0.048

Sequence	PBM E-score
CGGCCCCA	-0.0292
ATCGAGCC	-0.00748
TCGGTGCA	0.132
CTCACATA	-0.171
TAGTGGAA	-0.014
TGAAGGCA	-0.0871
CATGCATA	-0.196
CTTTAGTA	-0.105
AGCTGTGA	-0.183
AAGTACTC	-0.121
CAATAGTA	-0.0123
AAATCCAG	0.0351
GTTCGTAA	-0.107
GTTGTCCA	-0.159
AGAATGAT	0.0426
CGAGACAC	0.011
GTTGTTTA	-0.142
AGGCCAAC	-0.0243
CTGAATCA	-0.0725
GCATGGAC	0.0875
CAGACCGG	0.226
GCGGCCGC	0.35

Sequence	PBM E-score
ACGAAGTC	-0.191
ACACTCAT	0.0346
CCCTAATC	0.00476
CATGCCCA	-0.148
ACGAAAGG	0.128
ATAAACGA	0.0334
CAACGACG	-0.192
AGCGTGTG	-0.119
ACTCTAGA	-0.141
ATCTTGGA	-0.101
GCTTTTAC	-0.162
GTGAACGA	-0.0938
CACGAGAA	-0.0897
GACCTAGC	-0.107
GCGGTTAA	0.0091
CTCGTGAA	-0.0493
CCATCGGA	0.292
ATTGATGC	0.0778
GCATAACA	-0.189
CGATCGAG	0.247
